For three substances, binding results are on record in paper PMC10730695.

Chains of the proteins cited; added tags and fusions are not shown. Lines headed by an entry give the natural chain unless they say otherwise; changes in a name come on top. Residues count along the entry.
UniProt Q8N884: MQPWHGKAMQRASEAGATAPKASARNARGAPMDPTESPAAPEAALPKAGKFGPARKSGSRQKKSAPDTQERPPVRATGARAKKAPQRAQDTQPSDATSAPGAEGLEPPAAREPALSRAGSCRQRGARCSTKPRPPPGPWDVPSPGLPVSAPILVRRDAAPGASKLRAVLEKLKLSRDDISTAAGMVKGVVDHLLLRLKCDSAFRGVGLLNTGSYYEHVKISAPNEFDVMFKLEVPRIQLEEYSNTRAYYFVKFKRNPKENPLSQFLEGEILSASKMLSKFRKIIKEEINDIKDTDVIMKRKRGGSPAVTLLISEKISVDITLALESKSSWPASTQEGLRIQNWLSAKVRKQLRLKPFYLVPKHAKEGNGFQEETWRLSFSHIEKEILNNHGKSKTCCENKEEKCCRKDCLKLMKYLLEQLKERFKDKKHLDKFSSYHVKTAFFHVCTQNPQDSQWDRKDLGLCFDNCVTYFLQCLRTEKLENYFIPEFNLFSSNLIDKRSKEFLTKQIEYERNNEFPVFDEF
Flag-cGAS (1–160): residues 1-160 of Q8N884
Flag-cGAS (161–522)-MBP: residues 161-522 of Q8N884
UniProt P16220: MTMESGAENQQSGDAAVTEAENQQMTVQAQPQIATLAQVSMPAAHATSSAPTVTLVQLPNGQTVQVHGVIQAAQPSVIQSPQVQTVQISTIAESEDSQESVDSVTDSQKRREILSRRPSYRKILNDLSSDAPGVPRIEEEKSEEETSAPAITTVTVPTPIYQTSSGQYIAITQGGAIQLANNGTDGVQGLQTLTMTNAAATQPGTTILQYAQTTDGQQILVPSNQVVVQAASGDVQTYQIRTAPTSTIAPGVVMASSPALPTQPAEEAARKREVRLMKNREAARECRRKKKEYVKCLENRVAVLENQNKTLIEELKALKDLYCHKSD

Results are given in words; binding and its absence hold for the method and conditions named. In cells and extracts the contact can be indirect. Some entries that bind do so weakly or less than the wild type.

The target of test [1] is cGAS (cyclic GMP-AMP synthase), endogenous (human (endogenous in HBE)) (UniProt Q8N884). Kind of test: proximity ligation; Duolink In Situ Red kit; fixed and permeabilised HBE cells, antibodies against cGAS and CREB; red signal in the nucleus.
The target is the same in test [2]. Kind of test: co-IP; endogenous proteins; lysate precipitated with magnetic protein A/G beads conjugated with anti-cGAS or anti-CREB antibodies, western blot.
Test [3] addresses HA-tagged CREB (cAMP response element-binding protein) (UniProt P16220). Kind of test: co-IP; HEK293T cells co-transfected for 48 h; lysate precipitated with anti-HA beads overnight, washed four times with PBST, immunoblot.
Test [4] deals with Flag-cGAS (161–522) (human) (UniProt Q8N884). Kind of test: co-IP; HEK293T cells co-transfected for 48 h; lysate precipitated with anti-Flag beads overnight, washed four times with PBST, blot with anti-HA.
The target of test [5] is Flag-cGAS (161–522)-MBP (human) (UniProt Q8N884). Described as above.
Test [6] deals with Flag-cGAS (1–160) (human) (UniProt Q8N884). Described as above.
The target of test [7] is Flag-tagged cGAS (cyclic GMP-AMP synthase), full length (human) (UniProt Q8N884). Described as above.

In the case of “CREB (cAMP response element-binding protein), endogenous (from UniProt P16220 1-327)”, the binding entry in test [1] and in test [2] was “binds” in each case.
Turning to “Flag-tagged cGAS (cyclic GMP-AMP synthase), full length (from UniProt Q8N884 1-522)”, the binding entry in test [3] is listed as “binds”.
Take “HA-tagged CREB (cAMP response element-binding protein) (from UniProt P16220 1-327)”: the binding entry in test [4] is “binds”; in test [5], “binds”; in test [6], “no binding”; in test [7], “binds”.
